# Substitutions are numbered along the chain they refer to.
# T1: ICOS. His tag (UniProt Q9Y6W8 21-140, limits assumed)
# T1 construct: Bought (ACRO Biosystems); not shown: His tag
# T1 sequence (looked up): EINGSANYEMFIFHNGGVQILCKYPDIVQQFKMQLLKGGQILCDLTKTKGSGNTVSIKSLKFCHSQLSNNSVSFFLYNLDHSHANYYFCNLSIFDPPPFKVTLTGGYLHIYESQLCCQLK
# T2: human CTLA-4 his tag antigen (human, UniProt P16410 36-161)
# T2 construct: Bought (ACRO Biosystems); also called CTLA-4. his tag protein (human); not shown: His tag
# T2 sequence (looked up): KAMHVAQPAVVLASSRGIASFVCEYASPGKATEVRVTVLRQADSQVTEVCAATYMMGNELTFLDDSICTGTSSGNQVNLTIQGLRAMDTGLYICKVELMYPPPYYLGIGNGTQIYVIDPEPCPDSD
# B1: NGS-13 (Fc fusion)
# chain: QVQLVESGGGLVQPGGSLRLSCAASGFTLDDQAIGWFRQAPGKEREGVACISSSGRGTYLLSVKGRFTVTRDNAKNTVYLQMNRLQPEDTAVYYCASVPAVQTMCLMTHASRDDWGQGTQVTVSS[skipping human IgG4 Fc with S228P (EU numbers)]
# B2: NGS-08 (Fc fusion)
# chain: EVQLVESGGGLVQPGGSLRLSCVASGFTLDDHAIGWFRQAPGKAREGVSCISSSGRTTYLLSVKGRFTITRDNAKNTAYLQMNRLQPEDTAVYYCASVPTLGTACLMTHGMRSDWGQGTQVTVSS[skipping human IgG4 Fc with S228P (EU numbers)]
# B3: NB-27 (Fc fusion)
# chain: EVQLVESGGGLAQPGGSLRLSCAASGSTLDPFVIGWFRQAPGKERETVACINRSRTSYADSVKGRFTISRDNAKNMVYLQMNSLKPEDTAVYYCAASPDKPFYTDQTMCNKHYYGYWTQGTQVTVSS[skipping human IgG4 Fc with S228P (EU numbers)]
# B4: NB-57 (Fc fusion)
# chain: B3 chain with P14S, A24V, A49S, S54N, T56A, S61G, N72T, P101A, K111I, T118A
# B5: NB-783 (Fc fusion)
# chain: QVQLVESGGGLAQSGGSLRLSCAVSGSTLDPFVIGWFRQAPGKERETVSCINRNRASYADGVKGRFTISRDTAKNMVYLQMNSLKPEDTAVYYCAASPDKAFYTDQTMCNIHYYGYWAQGTLVTVSS[skipping human IgG4 Fc with S228P (EU numbers)]
# B6: NB-784 (Fc fusion)
# chain: EVQLVESGGGLVQPGGSLRLSCAVSGLNFGIYDFTWGRQAPGKGLEWIATMNPDGDITNYVDSVKGRFTISRDNANESLYLQMNSLKPEDTALYYCALGPERYFSIYATRGQGTLVTVSS[skipping human IgG4 Fc with S228P (EU numbers)]
# B7: BMK2 (Fc fusion)
# chain: QVQLVESGGGLVQPGGSLRLSCAASGYIYSAYCMGWFRQAPGKGLEGVAAIYIGGGSTYYADSVKGRFTISRDNSKNTLYLQMNSLRAEDTAVYYCAADVIPTETCLGGSWSGPFGYWGQGTLVTSS[skipping human IgG4 Fc with S228P (EU numbers)]
# B8: NB-879-z1 (Fc fusion)
# chain: EVQLVESGGGLVQPGGSLRLSCAASGDTLESFAVGWFRQAPGKEREELSCIGRTGEFTDYPGSVKGRFTISRDNSKNTVYLQMNSLRAEDTAVYYCAAERLVFHLCSLSEYDYDTWGQGTQVTVSS[skipping human IgG4 Fc with S228P (EU numbers)]
# notes: Format in the assay not restated
# B9: NB-879-z11 (Fc fusion)
# chain: B8 chain with L48V, S49A
# notes: as for B8
# B10: NB-879-z13 (Fc fusion)
# chain: B8 chain with L48V, S49A, S71T
# notes: as for B8
# B11: NB-879-z6 (Fc fusion)
# chain: B8 chain with S49A, S71T
# notes: as for B8
# B12: NB-879-z7 (Fc fusion)
# chain: B8 chain with S49A, S71T, S75A
# notes: as for B8
# B13: NB-879-z5 (Fc fusion)
# chain: B8 chain with S49A, S75A
# notes: as for B8
# B14: NB-879-z4 (Fc fusion)
# chain: B8 chain with S49A
# notes: as for B8
# B15: NB-879-z3 (Fc fusion)
# chain: B8 chain with S71T
# notes: as for B8
# B16: NB-879-z2 (Fc fusion)
# chain: B8 chain with S75A
# notes: as for B8
# B17: NB-879-z12 (Fc fusion)
# chain: B8 chain with L48V, S49A, S75A
# notes: as for B8
# B18: NB-879-z14 (Fc fusion)
# chain: B8 chain with S49A, S71T, Q82E
# notes: as for B8
# B19: NB-879-z15 (Fc fusion)
# chain: B8 chain with A24S, S49A, S71T, N84V
# notes: as for B8
# B20: NB-27-z7 (Fc fusion)
# chain: B3 chain with A12V, K85R, P86A
# notes: as for B8
# B21: NB-27-z6 (Fc fusion)
# chain: B3 chain with A12V, M76T, K85R, P86A
# notes: as for B8
# B22: NB-27-z10 (Fc fusion)
# chain: B3 chain with A12V, E44G, A49S, A73S, M76T, K85R, P86A
# notes: as for B8
# B23: NB-27-z3 (Fc fusion)
# chain: B3 chain with A12V, A49S, M76T, K85R, P86A
# notes: as for B8
# Target: T3, CD28. His tag (UniProt P10747 19-152, limits assumed)
# T3 construct: Bought (ACRO Biosystems); not shown: His tag
# T3 sequence (P10747 19-152 limits assumed): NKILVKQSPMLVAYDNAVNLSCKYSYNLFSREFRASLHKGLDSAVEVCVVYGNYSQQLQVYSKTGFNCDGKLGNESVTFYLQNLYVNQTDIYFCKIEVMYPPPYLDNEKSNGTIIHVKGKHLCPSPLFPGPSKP
# Test: ELISA, coated his-tagged protein
row,binding result,Binder
1,no binding (tested: OD450 < 0.3),B1
2,no binding (tested: OD450 < 0.3),B2
3,no binding (tested: OD450 < 0.3),B3
4,no binding (tested: OD450 < 0.3),B4
5,no binding (tested: OD450 < 0.3),B5
6,no binding (tested: OD450 < 0.3),B6
7,no binding (tested: OD450 < 0.3),B7

# Target: T4, murine CTLA-4. his tag protein (murine, UniProt P09793 36-161)
# T4 construct: Bought (ACRO Biosystems); also called mouse CTLA-4; not shown: His tag
# Test: ELISA, coated his-tagged protein
row,binding result,Binder
1,no binding (tested: OD450 < 0.3),B1
2,no binding (tested: OD450 < 0.3),B2
3,no binding (tested: OD450 < 0.3),B3
4,no binding (tested: OD450 < 0.3),B4
5,no binding (tested: OD450 < 0.3),B5
6,no binding (tested: OD450 < 0.3),B6
7,no binding (tested: OD450 < 0.3),B7

# Target: T5, PD-1. his tag protein (UniProt Q15116 part only, limits assumed)
# T5 construct: Bought (ACRO Biosystems); not shown: His tag
# T5 sequence (Q15116 25-167 limits assumed): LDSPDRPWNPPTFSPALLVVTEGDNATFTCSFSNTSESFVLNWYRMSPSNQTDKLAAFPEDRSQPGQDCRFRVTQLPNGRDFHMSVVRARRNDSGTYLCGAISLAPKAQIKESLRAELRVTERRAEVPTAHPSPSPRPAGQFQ
# Test: ELISA, coated his-tagged protein
row,binding result,Binder
1,no binding (tested: OD450 < 0.3),B1
2,no binding (tested: OD450 < 0.3),B2
3,no binding (tested: OD450 < 0.3),B3
4,no binding (tested: OD450 < 0.3),B4
5,no binding (tested: OD450 < 0.3),B5
6,no binding (tested: OD450 < 0.3),B6
7,no binding (tested: OD450 < 0.3),B7

# Target: T1, ICOS. His tag
# Test: ELISA, coated his-tagged protein
row,binding result,Binder
1,no binding (tested: OD450 < 0.3),B1
2,no binding (tested: OD450 < 0.3),B2
3,no binding (tested: OD450 < 0.3),B3
4,no binding (tested: OD450 < 0.3),B4
5,no binding (tested: OD450 < 0.3),B5
6,no binding (tested: OD450 < 0.3),B6
7,no binding (tested: OD450 < 0.3),B7

# Target: T2, human CTLA-4 his tag antigen
# Test: competition ELISA, coated CTLA-4.his, competitor biotinylated B7-1-Fc
row,IC50,Binder
1,34.4 nM,B1
2,61.7 nM,B2

# Target: T2, human CTLA-4 his tag antigen
# Test: SPR, Ab on protein A, CTLA-4.His in flow
Kd,koff,kon,Binder
17.6 nM,0.00302 s⁻¹,172000 M⁻¹ s⁻¹,B8
34 nM,0.00824 s⁻¹,242000 M⁻¹ s⁻¹,B9
51.9 nM,0.00223 s⁻¹,43000 M⁻¹ s⁻¹,B10
20.7 nM,0.0033 s⁻¹,160000 M⁻¹ s⁻¹,B11
19.2 nM,0.00246 s⁻¹,128000 M⁻¹ s⁻¹,B12
16.9 nM,0.00318 s⁻¹,188000 M⁻¹ s⁻¹,B13
17.1 nM,0.00345 s⁻¹,202000 M⁻¹ s⁻¹,B14
18.2 nM,0.00317 s⁻¹,174000 M⁻¹ s⁻¹,B15
18 nM,0.00307 s⁻¹,171000 M⁻¹ s⁻¹,B16
35.6 nM,0.00949 s⁻¹,267000 M⁻¹ s⁻¹,B17
17.3 nM,0.00188 s⁻¹,108000 M⁻¹ s⁻¹,B18
18.4 nM,0.00216 s⁻¹,117000 M⁻¹ s⁻¹,B19
1.17 nM,0.000305 s⁻¹,261000 M⁻¹ s⁻¹,B20
1.31 nM,0.000339 s⁻¹,259000 M⁻¹ s⁻¹,B21
1.42 nM,0.000376 s⁻¹,265000 M⁻¹ s⁻¹,B22
1.12 nM,0.000381 s⁻¹,341000 M⁻¹ s⁻¹,B23

# Source: patent US20250333508A1 (ZHEJIANG NANOMAB TECHNOLOGY CENTER, published 2025)
